According to article PMC6919601, “Identification of Plasmodium dipeptidyl aminopeptidase allosteric inhibitors by high throughput screening” (PLoS ONE, 2019):
Among all 110,000 compounds or so, about 230 (0.21%) showed an effect of 50% or more. The list shows a part of the results.

Target: DPAP1 (Plasmodium falciparum, UniProt Q8IIJ9)
Test: primary screen, percent inhibition; read by cleavage of a fluorogenic dipeptide substrate; higher = more effect of the substance
Design: species or system P. falciparum D10 trophozoite lysates; single well
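Further: 30 min substrate incubation versus DMSO and 10 µM JCP410 controls.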

Chain of DPAP1 (Q8IIJ9 whole entry, looked up): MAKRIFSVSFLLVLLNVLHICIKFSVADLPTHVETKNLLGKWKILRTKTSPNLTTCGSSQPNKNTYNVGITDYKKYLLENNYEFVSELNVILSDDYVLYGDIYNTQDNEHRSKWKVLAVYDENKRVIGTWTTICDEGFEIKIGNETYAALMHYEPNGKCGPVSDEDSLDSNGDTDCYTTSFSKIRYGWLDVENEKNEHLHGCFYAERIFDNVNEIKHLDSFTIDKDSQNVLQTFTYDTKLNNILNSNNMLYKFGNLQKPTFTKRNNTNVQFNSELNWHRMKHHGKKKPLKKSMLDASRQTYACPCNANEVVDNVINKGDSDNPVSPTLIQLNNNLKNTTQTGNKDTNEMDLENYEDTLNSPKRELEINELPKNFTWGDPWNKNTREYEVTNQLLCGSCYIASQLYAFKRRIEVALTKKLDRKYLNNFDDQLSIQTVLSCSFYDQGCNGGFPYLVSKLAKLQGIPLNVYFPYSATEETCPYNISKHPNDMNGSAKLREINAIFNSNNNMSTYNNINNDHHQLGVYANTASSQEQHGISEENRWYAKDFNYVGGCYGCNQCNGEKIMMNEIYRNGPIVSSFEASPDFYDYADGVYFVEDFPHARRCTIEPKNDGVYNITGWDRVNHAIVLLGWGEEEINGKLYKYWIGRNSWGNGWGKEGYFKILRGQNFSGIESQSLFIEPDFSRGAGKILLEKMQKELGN

Row | SMILES | % Inhibition @ 10 uM [%]
1 | O=C1CCSc2ccc(Cl)cc21 | -0.256
2 | Cc1nc2cc(-c3cccc(F)c3)nn2c(C)c1CCC(=O)NCCCOC(C)C | -4.1
3 | CCCCN(Cc1cc2cc(OC)ccc2nc1O)S(=O)(=O)c1ccccc1 | 2.62
4 | Cn1c(=O)c2c(-c3ccccc3)n3c4ccccc4nc(C(F)(F)F)c3c2n(C)c1=O | 0.315
5 | CCN1CCN(C(=O)C2CCN(c3nnc(C)c4c(C)n(-c5ccc(Cl)cc5)nc34)CC2)CC1 | -1.41
6 | COc1ccccc1C(=O)CC1(O)C(=O)Nc2ccccc21 (stereo not shown) | 0.161
7 | CC(C)CC(NC(=O)/C(=C/c1ccco1)NC(=O)c1ccc(Br)o1)C(=O)O (stereo not shown) | -4.74
8 | COc1ccccc1CNC(=O)c1cc(-c2cccnc2)nc2ccccc12 | -4.06
9 | COc1cccc(C(=O)Nc2ccccc2C(C)C)c1 | -2.22
10 | Cc1cccc(C(=O)NCCCN(C)C)c1 | -0.0505
11 | COc1ccc(C(=O)Nc2c(C)cccc2C(C)C)c(OC)c1 | 3.27
12 | O=C(O)c1ccc(Nc2nc3c(s2)CCCC3)cc1 | -6.27
13 | COc1ccc(S(=O)(=O)N2CCCc3ccccc32)cc1 | -2.6
14 | O=C1CC(NCC(O)c2ccccc2)C(=O)N1c1ccc(Cl)cc1 (stereo not shown) | -1.82
15 | CC(C)(O)C#Cc1ccc(C(=O)N2CCN(c3ccccn3)CC2)cc1 | -4.93
16 | COc1cc(OC)cc(C2=N/C(=C\C(Cl)=C\c3ccccc3)C(=O)O2)c1 | -5.79
17 | CCOc1ccc(Oc2cc(C)nc(SC)n2)nn1 | 3.93
18 | CCC(C)NC(=S)Nc1ncccc1C(=O)OC (stereo not shown) | 1.07
19 | Cc1ccc(N(CC(=O)N2CCN(c3ccccc3)CC2)S(=O)(=O)c2ccccc2)c(C)c1 | -4.13
20 | C1CCC2(C1)OCC1(CO2)COC2(CCCC2)OC1 | 4.49
21 | CCCOc1ccc(CNC(=O)CCC(=O)n2ncc3cc(C)ccc32)cc1 | 3.84
22 | Nc1c2c(nn1-c1ccccc1)-c1ccccc1CC21CCCC1 | 1.4
23 | O=C(NC1CCC(NC(=O)c2ccc(F)cc2)CC1)c1ccc(F)cc1 (stereo not shown) | 0.528
24 | CCN(CC)c1ccc(NC(=O)c2ccccc2C(=O)O)cc1 | -7.76
25 | Nc1c(C(=O)Nc2ccc(F)c(F)c2)sc2nc(-c3ccc4c(c3)OCO4)ccc12 | -1.6

Row | SMILES | % Inhibition @ 10 uM [%]
26 | CC(C)c1ccc(CN2CCN(c3ccccn3)CC2)cc1 | 3.25
27 | COc1ccc(Cn2c(C(=O)O)c(CNCC(C)c3ccccc3)c3ccccc32)cc1 (stereo not shown) | -1.97
28 | COc1cc(NC(=O)c2ccccc2Cl)c2ncccc2c1 | -1.28
29 | CC(C)C(O)(CC#CCN1CCCC1)c1ccccc1 (stereo not shown) | -0.902
30 | O=C(O)CCn1ncc2ccccc21 | 3.44
31 | O=C(Cn1nc(-c2ccccc2)ccc1=O)NC1CCCCCC1 | -2.99
32 | O=C(NCc1ccccc1)C(Cc1ccccc1)N1C(=O)c2ccccc2C1=O (stereo not shown) | -0.369
33 | O=[N+]([O-])c1ccc(Cl)c(CN2CCC(O)CC2)c1 | -1.77
34 | C=CCN1C(=O)C(O)=C(C(=O)c2ccc(OC)cc2)C1c1ccc(F)cc1 (stereo not shown) | -3.45
35 | CCCn1c2ccccc2c2cnn(CC(=O)NCCCN(CC)Cc3ccccc3)c(=O)c21 | 2.13
36 | O=C(ON=C1C=CC(=NOC(=O)c2ccco2)C=C1)c1ccccc1 | 8.01
37 | O=C(CN(Cc1ccc(Cl)cc1)S(=O)(=O)c1ccccc1)Nc1ccc2c(c1)OCCO2 | 7.17
38 | O=C(NCCC1=CCCCC1)NCc1noc2ccccc12 | 3.28
39 | Cn1cnnc1SCc1cn2cc(Cl)ccc2n1 | 1.6
40 | O=C(CN1Cc2ccccc2C1=O)N1CCOCC1 | -0.501
41 | CC/N=c1\c(NS(=O)(=O)c2ccc(OC)cc2)c(O)oc2ccccc12 | -0.0709
42 | O=c1c(-c2ccccc2)c(C(F)(F)F)oc2c(CN3CCCCC3)c(O)ccc12 | 4.86
43 | CC(C)NC(=O)NS(=O)(=O)c1cnccc1N1CCCCC1 | 2.49
44 | Cc1nn(C)c2c1c(-c1ccccc1)cc(=O)n2Cc1cccc(F)c1 | 2.65
45 | CC(C)c1ccc(S(=O)(=O)c2cnc(SCC(N)=O)nc2O)cc1 | 0.351
46 | Cc1sc2ncn(CC(=O)NCCCC(=O)N(C)Cc3ccccc3)c(=O)c2c1C | 5.12
47 | Cn1c(C(=O)N2CCC(C(N)=O)CC2)cc2sccc21 | -3.08
48 | COCCOC(=O)c1c(C)oc2ccc(OCc3ccc(C)cc3)cc12 | -0.357
49 | CC(C)(Oc1ccc(Cl)cc1)C(=O)N1CCN(c2ccccc2)CC1 | -6.02
50 | CCOc1ccc(CCNC(=O)c2cc3c(s2)CS(=O)(=O)C3)cc1OCC | -6.77

Row | SMILES | % Inhibition @ 10 uM [%]
51 | CN(Cc1ccccc1)Cc1nc2c(c(=O)n(C)c(=O)n2C)n1CCCc1ccccc1 | -3.46
52 | O=S1(=O)c2ccccc2NC(c2cccc(OC3CSC3)c2)N1Cc1ccccc1 (stereo not shown) | 0.993
53 | CCOC(=O)c1c(NC(=O)/C=C/C(=O)O)sc2c1CCN(Cc1ccccc1)C2 | -1.92
54 | COc1ccc(CN2CCCCC2C)c(C)c1C (stereo not shown) | 3.24
55 | CC(C)NS(=O)(=O)c1ccc(-c2ccc(S(=O)(=O)NC(C)C)cc2)cc1 | 1.7
56 | CC(C)N(Cc1nc(-c2ccccc2)no1)C(=O)N1CCOCC1 | 0.486
57 | CC1(C)OC(=O)C(/C=N/c2ncccn2)=C(O)O1 | 3.66
58 | COc1ccc(C2CC(=O)N=C(NC(=O)c3ccc(OC(F)F)cc3)N2)cc1 (stereo not shown) | 4.5
59 | CCOc1ccc(NS(=O)(=O)c2ccc(NC(=O)c3ccccc3C(=O)O)cc2)cc1 | 3.5
60 | COc1cc(/C=C2\SC(=O)N(Cc3ccccc3)C2=O)ccc1OCC(=O)O | 0.189
61 | Cc1nn(-c2ccccc2)c2sc(C(=O)NCC(=O)O)cc12 | -7.04
62 | CS(=O)(=O)N1CCCC(C(=O)NCCCN2CCN(Cc3ccccc3)CC2)C1 (stereo not shown) | 3.79
63 | O=C1NC(=O)N(c2cccc(Cl)c2)C(=O)/C1=C\Nc1cccc(O)c1 | -2.54
64 | CC(C)(C)NC(CNS(=O)(=O)c1ccccc1)c1ccccc1 (stereo not shown) | 1.12
65 | COc1cccc(-c2cc(C(=O)N3CCCC(C)C3)[nH]n2)c1 (stereo not shown) | 1.06
66 | CC1CCN(S(=O)(=O)c2ccc3c(ccn3CCC(=O)NCCc3ccccc3Cl)c2)CC1 | 5.61
67 | NC(=O)C1CCCN(Cc2c(F)cccc2F)C1 (stereo not shown) | 6.49
68 | CC1CCN(S(=O)(=O)c2ccc(NC(=O)c3ccc(Br)o3)cc2)CC1 | -1.06
69 | O=C1/C(=C\c2ccc(Cl)cc2)S(=O)(=O)c2ccccc21 | -1.84
70 | Cc1ccc(-c2noc(-c3nnn(-c4cccc(F)c4)c3N)n2)cc1 | -4.17
71 | O=C1CC(C(=O)N2CCOCC2)C2(CCCCC2)O1 (stereo not shown) | -0.925
72 | O=C(O)c1ccc(NC(=O)c2cccnc2C(=O)O)cc1 | -6.44
73 | CCN1CCN(c2c(S(=O)(=O)c3ccc(C)cc3)cnc3cc(OC)c(OC)cc23)CC1 | -3.86
74 | COc1ccc(N(CC(=O)N2CCOCC2)S(=O)(=O)c2ccccc2)cc1OC | -3.28
75 | COCc1nnc(SCC(=O)Nc2cc(=O)n(C)c(=O)n2C)n1-c1ccccc1 | 2.79

Row | SMILES | % Inhibition @ 10 uM [%]
76 | CCOc1ccc(CNC(=O)C2CCN(S(=O)(=O)N3CCC(C)CC3)CC2)cc1 | 5.23
77 | COc1ccc(CNC(=O)C(NS(=O)(=O)c2cccs2)C(C)C)cc1 (stereo not shown) | 0.723
78 | O=C(CSc1nnc(-c2cccc(Cl)c2)o1)N1CCCC1 | -4.03
79 | COc1ccc(CNC(=O)c2oc3ccc(S(=O)(=O)N4CCOCC4)cc3c2C)cc1 | -0.972
80 | Cc1nc2cc(NC(=O)N3CCCCC3)ccc2n1C | 4.49
81 | CC(C)(C)c1ccc(S(=O)(=O)Nc2ccc(O)c(Br)c2)cc1 | 5.97
82 | O=C(Cn1ncc2ccc(Cl)cc21)N1CCc2ccccc2C1 | 3.84
83 | COc1cc2nc(S)nc(NCCC3=CCCCC3)c2cc1OC | -4.69
84 | Cc1cc(NC(=O)C(C)Oc2ccc(Cl)cc2Cl)no1 (stereo not shown) | -2.83
85 | CC(=O)N(C)c1ccc(NC(=O)COc2ccc(C)cc2Br)cc1 | -5.13
86 | O=C(C1=C(O)C(=O)N(CC2CCCO2)C1c1ccc(Cl)cc1)c1ccc(Br)cc1 (stereo not shown) | 5.05
87 | Cc1ccc(S(=O)(=O)Nc2ccc(C)c(O)c2)cc1 | -6.39
88 | CC(C)CS(=O)(=O)C1=NN2C(=N)/C(=C\c3c[nH]c4ccccc34)C(=O)N=C2S1 | 1.9
89 | Cn1c(C(=O)NCc2ccc(Cl)cc2)cc2oc3ccccc3c21 | -5.63
90 | O=C(O)C1CCCN(c2cnccn2)C1 (stereo not shown) | 0.401
91 | COc1cc2ccccc2cc1C(=O)Nc1ccc(Cl)c(Cl)c1 | -4.21
92 | Cc1ccc(C(=N)NOC(=O)c2ccco2)cc1 | 0.27
93 | NC(=O)c1c(NC(=O)c2cccnc2)sc2c1CCCCCC2 | 12.6
94 | CCCNC(=O)Cn1nc(CC)n2c(cc3cc(F)ccc32)c1=O | -7.22
95 | CCOC(=O)C1=C(C)N(c2nonc2NC(C)=O)C(N)=C(C#N)C1c1ccccc1F (stereo not shown) | 4.32
96 | COc1ccc(OC)c(-c2cc(C(=O)O)c3ccccc3n2)c1 | -0.992
97 | COc1cc(C2CC(=O)NC(SCC(=O)NCc3ccccc3)=C2C#N)ccc1O (stereo not shown) | 3.66
98 | CC(C)Oc1ccc(C(=O)Nc2ccc(Cl)cc2)cc1 | 0.795
99 | Cc1cc(-c2ccc(S(=O)(=O)NCc3cccnc3)cc2)on1 | -1.32
100 | CCOc1cc(C(=O)N2CCC3(CC2)N=C(c2ccccc2)C(=O)N3)cc(OCC)c1OCC | 2.75
